Results published in PubChem BioAssay AID360 (National Center for Advancing Translational Sciences (NCATS), 2006).
Hit rate of the full screen: of about 48,000 compounds, about 550 (1.1%) were called active. About 4% were inconclusive and are not listed. Rule as the data show it: active = potency below about 15 µM; inconclusive = mostly about 16 µM to 33 µM; inactive = weaker than that. Some of the results follow.

target: Lysosomal acid glucosylceramidase (Homo sapiens) (UniProt P04062); experiment: Glucocerebrosidase; settings: purified enzyme, resorufin glucoside fluorescence (screen aimed at inhibitors), 20 min; series mostly up to 77 µM;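 also: the screen sought inhibitors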
Chain of UniProt P04062 (P04062 whole entry, looked up): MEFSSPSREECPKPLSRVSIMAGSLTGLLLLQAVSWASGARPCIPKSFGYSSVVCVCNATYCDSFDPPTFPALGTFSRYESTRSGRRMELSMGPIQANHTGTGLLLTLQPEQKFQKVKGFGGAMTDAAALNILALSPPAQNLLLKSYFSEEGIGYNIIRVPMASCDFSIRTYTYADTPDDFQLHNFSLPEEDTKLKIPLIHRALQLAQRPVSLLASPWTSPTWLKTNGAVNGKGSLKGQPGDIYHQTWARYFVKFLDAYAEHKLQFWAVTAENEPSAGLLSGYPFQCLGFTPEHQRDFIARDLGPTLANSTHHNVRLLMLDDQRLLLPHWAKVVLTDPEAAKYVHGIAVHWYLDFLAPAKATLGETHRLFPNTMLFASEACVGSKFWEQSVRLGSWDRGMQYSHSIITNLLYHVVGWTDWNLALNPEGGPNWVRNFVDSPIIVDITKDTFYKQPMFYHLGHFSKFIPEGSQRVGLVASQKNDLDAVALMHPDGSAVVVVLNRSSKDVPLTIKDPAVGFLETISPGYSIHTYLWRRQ
Outline: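 Compounds titrated against 0.2 nM normal enzyme, 30 uM resorufin beta-D-glucopyranoside substrate, citrate/phosphate buffer with taurocholate and tween-20, pH 5.9. Reaction ran 20 min at room temperature; fluorescence (Ex 548/Em 600) gave AC50.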
Potency is read from the fitted curve at half-maximal effect.

Potency, inactive:
COc1cccc(N2CCN(C(=O)C3C4C=CC5(CN(Cc6ccccc6Cl)C(=O)C35)O4)CC2)c1 (stereo not drawn) > 76.9 µM
COc1ccc(-c2ccc(-c3noc(C4CCCCC4)n3)c(OC)n2)cc1 > 76.9 µM
O=C(c1ccccc1F)N1CCc2ccccc21 > 76.9 µM
CC(NC(=O)c1cc(-c2cccs2)on1)c1ccccc1 (stereo not drawn) > 76.9 µM
O=c1cc(N2CCCC2)[nH]c(=O)n1-c1ccc(Cl)cc1 > 76.9 µM
Cc1nnc(SCCn2c(Br)nc3c2c(=O)[nH]c(=O)n3C)s1 > 76.9 µM
COCCCNC(=O)c1cccc(OC)c1OC > 76.9 µM
N/C(Cn1nnc(-c2ccccc2)n1)=N\O > 76.9 µM
CCN(CC)S(=O)(=O)c1ccc2oc(C(=O)N3CCOCC3)c(C)c2c1 > 76.9 µM
O=S(=O)(c1ccc(NCCc2c[nH]c3ccccc23)nc1)N1CCOCC1 > 76.9 µM
Cc1ccc(S(=O)(=O)N2CCCC2C(=O)NC2=NCCS2)cc1 (stereo not drawn) > 76.9 µM
COC(=O)COc1ccc(S(=O)(=O)NCc2ccncc2)cc1 > 76.9 µM
Cc1ccc(C(C)C)c(OCC(=O)N2CCOCC2)c1 > 76.9 µM
O=C1C(c2ccncc2)=C(O)c2ccccc21 > 76.9 µM
CCOC(=O)c1cc(-c2ccccc2)n(CC(=O)N2CCCC2)c1C > 76.9 µM
NS(=O)(=O)c1ccc(NC(=O)CSc2ccccn2)cc1 > 76.9 µM
O=C1CC(c2ccccc2)CC(O)=C1C=NCc1ccco1 (stereo not drawn) > 76.9 µM
COc1ccccc1N1CCN(S(=O)(=O)c2cccc(F)c2)CC1 > 76.9 µM
O=C(CCCCCn1c(=O)[nH]c2ccccc2c1=O)NCCCN1CCN(c2ccccc2F)CC1 > 76.9 µM
CN(C)/C=N/c1sccc1C(N)=O > 76.9 µM
COc1ccccc1NC(=O)C1=C(C)NC2=C(C(=O)CCC2)C1c1ccc(C)o1 (stereo not drawn) > 76.9 µM
COc1cc(CN2CCC(C(=O)N3CCC(C)CC3)CC2)cc(Br)c1O > 76.9 µM
CC(C)C(=O)Nc1ccc(NC(=O)c2cccs2)cn1 > 76.9 µM
O=C(NC1CC2CCC(C1)N2C(=O)NCc1ccccc1)C1CC1 (stereo not drawn) > 76.9 µM
COC(=O)[C@H](C)NC(=O)NCc1ccccc1F > 76.9 µM
Cc1cc(C)c(NC(=O)CCCN2CCN(C)CC2)c(C)c1 > 76.9 µM
COC(=O)CCN(C(C)=O)c1ccc(N)cc1 > 76.9 µM
O=c1c2[nH]c3ccccc3c2ncn1CCN1CCNCC1 > 76.9 µM
COc1cccc(CN(CC(=O)NCC2CCCO2)C(=O)CCC(=O)Nc2cc(C)on2)c1 (stereo not drawn) > 76.9 µM
CC(=O)c1cccc(NC(=O)N2CCCC2C(=O)NCc2ccc(C)cc2)c1 (stereo not drawn) > 76.9 µM
O=C(O)CCc1ccc(-c2cccs2)n1NC(=O)c1ccccc1Br > 76.9 µM
O=C(CSc1nnc(-c2ccncc2)n1Cc1ccco1)Nc1ccccc1Cl > 76.9 µM
COCCCNC(=O)CCc1nc(-c2ccccc2)no1 > 76.9 µM
Cc1cc(C)n(-c2ccc(C(=O)NC(C)C)cc2)n1 > 76.9 µM
Cn1c(SCC(=O)c2ccccc2)nnc1C1CC1 > 76.9 µM
CCC(=O)Oc1ccc(C/C(=N\O)c2ccc(O)cc2O)o1 > 76.9 µM
CCc1nnc(NC(=O)c2c(OC)cccc2OC)s1 > 76.9 µM
CN1CCN(/C(=N\O)c2nonc2N)CC1 > 76.9 µM
CCc1nnc(SCC(=O)N2CCCc3ccccc32)nc1CC > 76.9 µM
O=C(Nc1ccc2oc(Cc3ccc(Cl)cc3)nc2c1)c1cccnc1
Cc1cccc(CS(=O)(=O)Cc2ccc(C(=O)O)o2)c1 > 76.9 µM
Cc1nc2cc(C(F)(F)F)ccc2n1C1CCN(CC(=O)N2CCOCC2)CC1 > 76.9 µM
COc1ccccc1N(CCC#N)C(=O)CSc1ccc2c(c1)OCCO2 > 76.9 µM
Cc1ccc2c(c1)[nH]c1c(=O)n(Cc3ccccn3)cnc12 > 76.9 µM
Cc1ccc(S(=O)(=O)CC(=O)N2CCCC2)cc1 > 76.9 µM
Cc1csc(N(C)C(=O)CSc2nnc(COc3ccccc3C)o2)n1 > 76.9 µM
CCSc1ccccc1C(=O)NCc1ccc(S(N)(=O)=O)cc1 > 76.9 µM
CCOC(=O)C1=C(N)Oc2cc(C)oc(=O)c2C1c1cccnc1 (stereo not drawn) > 76.9 µM
CCn1c(SCC(=O)Nc2nonc2C)nnc1-c1ccoc1C > 76.9 µM
O=C(CN1CCOCC1)N(c1ccccc1)c1ccc2ccccc2c1 > 76.9 µM
COC(=O)N1CC(c2ccccc2)CC1=O (stereo not drawn) > 76.9 µM
Cc1nnc(SCc2nnc(-c3ccccc3)o2)n(N)c1=O > 76.9 µM
O=C(CSc1nnc(-c2cccnc2)n1Cc1ccco1)Nc1nc(-c2ccc(F)cc2)cs1 > 76.9 µM
Cc1noc(C)c1S(=O)(=O)N1CCCC(C(=O)NCc2ccccn2)C1 (stereo not drawn) > 76.9 µM
C=CCC(Nc1ccco1)c1ccccc1 (stereo not drawn) > 76.9 µM
COc1cc(C2C3C(=O)N(Cc4ccccc4)C(=O)C3ON2c2ccccc2)cc(OC)c1OC (stereo not drawn) > 76.9 µM
COc1cccc(-c2nnc(SCC(=O)Nc3ccc4c(c3)OCCO4)n2Cc2ccco2)c1 > 76.9 µM
CC1CN(C(=O)C2CCCCC2)C(C)CN1C(=O)C1CCCCC1 (stereo not drawn) > 76.9 µM
Cc1ccc(N(CC(=O)N2CCN(C3CCCCC3)CC2)S(=O)(=O)c2cccnc2)cc1 > 76.9 µM
Nc1nc(SCC(=O)N2CCCC2)[nH]c(=O)c1-c1ccccc1 > 76.9 µM
COC(=O)C(C)Oc1ccc(=O)[nH]n1 (stereo not drawn) > 76.9 µM
CCOC(=O)CSc1nnnn1-c1cccc2ccccc12 > 76.9 µM
Cc1ncc(CO)c2cc(C(N)=O)c(=Nc3ccccc3)oc12 > 76.9 µM
COc1ccc(CNC(=O)CN(CC2CCCO2)C(=O)CNS(=O)(=O)c2ccc(C)cc2)cc1 (stereo not drawn) > 76.9 µM
CCCOc1ccc2oc(=O)c3c(c2c1)CCCN3C(=O)CN1CCCC(C(=O)OCC)C1 (stereo not drawn) > 76.9 µM
O=C(CCCn1c(=O)[nH]c2ccsc2c1=O)N1CCCCC1 > 76.9 µM
CCc1ccc(OCC(=O)N(C)CCC#N)c(Br)c1 > 76.9 µM
CCOC(=O)c1cc2ccccc2nc1C > 76.9 µM
Cc1csc(SCC(=O)Nc2nc(-c3ccccc3)cs2)n1 > 76.9 µM
CCCn1c(O)c(CN2CCCCC2)c(C)c(C#N)c1=O > 76.9 µM
COc1cccc(N2CCCn3c2nc2c3c(=O)n(CCN3CCOCC3)c(=O)n2C)c1 > 76.9 µM
COC(=O)CNC(=O)Cn1cnc2sc(C)c(S(=O)(=O)N3CCC(C)CC3)c2c1=O > 76.9 µM
O=C(OCCOc1ccccc1Cl)c1ccc(-n2cnnn2)cc1 > 76.9 µM
O=C1CCCN1Cc1ncnn1-c1ccccc1 > 76.9 µM
CC(=O)NCCn1c(SCC(=O)c2ccccc2)nc2ccccc2c1=O > 76.9 µM
Cc1ccc2cc(C(c3nnnn3CC3CCCO3)N3CCc4ccccc4C3)c(=O)[nH]c2c1 (stereo not drawn) > 76.9 µM
CCC(C(=O)NCc1ccco1)n1nc(-c2ccc(OC)cc2)ccc1=O (stereo not drawn) > 76.9 µM
O=C(NC1CCCCC1)C1CCN(S(=O)(=O)N2CCCCCC2)CC1 > 76.9 µM
O=c1[nH]c2ccccc2n1CCCSc1cnc2ccccc2n1 > 76.9 µM
N#Cc1c(NC(=O)CSc2nc(-c3ccco3)cc(C(F)(F)F)n2)sc2c1CCCC2 > 76.9 µM
COC(=O)c1cc(-c2ccccc2)n[nH]1 > 76.9 µM
COc1ccc(C)cc1S(=O)(=O)N(C)CC(=O)Nc1ccc2c(c1)OCCO2 > 76.9 µM
COC(=O)CSc1ncccc1-c1nc2ccccc2[nH]1 > 76.9 µM
C=CCn1c(SCC(=O)Nc2sccc2C(N)=O)nc2sc(C)c(C)c2c1=O > 76.9 µM
CCOC(=O)N1CCN(C(=O)CSc2nnc(CNC(=O)c3ccccc3F)o2)CC1 > 76.9 µM
CC(C(=O)O)n1nc2ccccc2n1 (stereo not drawn) > 76.9 µM
CCOC(=O)c1cnc2ccc(C(=O)OC)cc2c1NCc1ccco1 > 76.9 µM
CCCOc1nc2c(c(=O)n(C)c(=O)n2C)n1Cc1cccc2ccccc12 > 76.9 µM
Cc1ccc(NS(=O)(=O)c2cc(C(=O)O)ccc2Cl)c(C)c1 > 76.9 µM
COc1ccc2[nH]c(=O)c(CN(C)C(=O)COc3ccccc3)cc2c1 > 76.9 µM
CCn1c(=O)c(C(=O)NCCNCCO)c(O)c2ccccc21 > 76.9 µM
O=C(CCn1c(=O)oc2ccccc21)Nc1nccs1 > 76.9 µM
O=c1nc(-c2ccccc2)n(-c2ccccc2)c2ncccc12 > 76.9 µM
